Assay results taken from the BET-seq Pho4 binding data (Le et al. 2018).
The list shows a part of the results. These are noisy estimates, calculated here from bound and input reads.

Each sequence was assayed against T1, Pho4 (S. cerevisiae) (UniProt P07270) (assay: relative binding free energy (BET-seq); higher = weaker binding). Settings: reference: library average.
T1 sequence: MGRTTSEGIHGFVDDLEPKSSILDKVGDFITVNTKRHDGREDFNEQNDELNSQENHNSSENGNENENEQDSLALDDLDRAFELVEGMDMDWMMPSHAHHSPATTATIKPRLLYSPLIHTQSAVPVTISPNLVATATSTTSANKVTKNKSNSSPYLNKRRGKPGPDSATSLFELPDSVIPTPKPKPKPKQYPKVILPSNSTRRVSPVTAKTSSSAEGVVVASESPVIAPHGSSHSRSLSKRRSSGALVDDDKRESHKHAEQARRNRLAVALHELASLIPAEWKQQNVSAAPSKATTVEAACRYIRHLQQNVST

Row | Sequence | relative binding free energy
1 | TTTTACACGTGGTTGA | 0.1 kcal/mol
2 | CTATACACGTGGGTAT | -0.14 kcal/mol
3 | TTGAGCACGTGATAGG | -0.02 kcal/mol
4 | TCATTCACGTGTGTGG | 0.25 kcal/mol
5 | ACTTTCACGTGTATGG | 0.07 kcal/mol
6 | TTGTTCACGTGGCGCG | 0.2 kcal/mol
7 | TCATGCACGTGTTTTA | -0.07 kcal/mol
8 | TTTAACACGTGTAGAA | 0.1 kcal/mol
9 | GTCTTCACGTGGGATT | 0.32 kcal/mol
10 | TGATGCACGTGGGCGC | -0.19 kcal/mol
11 | CTATTCACGTGTGGCG | 0.27 kcal/mol
12 | TAGTTCACGTGCTGAA | 0.33 kcal/mol
13 | CCTGTCACGTGTTTTT | 0.18 kcal/mol
14 | AATGGCACGTGAAATT | 0.18 kcal/mol
15 | TTTTCCACGTGTGAGA | 0.16 kcal/mol
16 | TAGTGCACGTGCTGTT | -0.12 kcal/mol
17 | GTATGCACGTGTTGGT | 0.06 kcal/mol
18 | GGGGGCACGTGAAGCG | 0.16 kcal/mol
19 | GTGTTCACGTGATATT | 0.42 kcal/mol
20 | ATTGGCACGTGTATAC | -0.22 kcal/mol
21 | TTAGGCACGTGGCGCA | -0.2 kcal/mol
22 | TTCCTCACGTGGCGGG | 0.17 kcal/mol
23 | TGATTCACGTGTGCGG | 0.13 kcal/mol

Row | Sequence | relative binding free energy
24 | GCGGCCACGTGAGGTG | 0.24 kcal/mol
25 | ATTATCACGTGTAAGT | 0.08 kcal/mol
26 | GTTTCCACGTGTTGGC | 0.26 kcal/mol
27 | AAGGGCACGTGGCGTT | -0.12 kcal/mol
28 | GTGGTCACGTGCCGTG | 0.16 kcal/mol
29 | TTGAACACGTGAGGCT | 0.26 kcal/mol
30 | TCGGGCACGTGGTAAT | -0.07 kcal/mol
31 | TTTGGCACGTGACGCG | 0.03 kcal/mol
32 | AGTGTCACGTGGGCTG | -0.11 kcal/mol
33 | AGGATCACGTGGTTGG | 0.15 kcal/mol
34 | GATGCCACGTGAGGGT | 0.28 kcal/mol
35 | TTTATCACGTGGGAAG | 0.12 kcal/mol
36 | GTTGGCACGTGGCGCA | -0.24 kcal/mol
37 | AGGTGCACGTGATGCT | 0.09 kcal/mol
38 | GTTGCCACGTGGCGTG | -0.13 kcal/mol
39 | AGAGACACGTGTGTTT | 0 kcal/mol
40 | CGGGTCACGTGAGGCA | 0.22 kcal/mol
41 | CGTCACACGTGAAGGT | 0.4 kcal/mol
42 | TGACGCACGTGTCTGT | -0.03 kcal/mol
43 | GGTTACACGTGAATGA | 0.27 kcal/mol
44 | AGTAACACGTGTGGTC | -0.05 kcal/mol
45 | TTTGGCACGTGGAAAT | 0.08 kcal/mol
46 | AGGTCCACGTGGTGGT | -0.09 kcal/mol

Row | Sequence | relative binding free energy
47 | AGCGTCACGTGAGGTG | 0.24 kcal/mol
48 | TCGTGCACGTGTGGCT | -0.04 kcal/mol
49 | CTTTGCACGTGTTTGA | -0.09 kcal/mol
50 | GGGTGCACGTGTTACG | 0.02 kcal/mol
51 | TGCGTCACGTGGGTTA | 0 kcal/mol
52 | AGTCTCACGTGCGGTG | 0.06 kcal/mol
53 | TGATTCACGTGTTGTA | 0.18 kcal/mol
54 | TGGATCACGTGCAGTG | 0.13 kcal/mol
55 | TCATGCACGTGTGTGT | -0.04 kcal/mol
56 | TGTCGCACGTGGGTGT | -0.12 kcal/mol
57 | GGGAGCACGTGCGAGT | -0.17 kcal/mol
58 | TTTTGCACGTGGCCAT | -0.15 kcal/mol
59 | AAGGGCACGTGAATGA | 0.3 kcal/mol
60 | GATGTCACGTGGTATT | 0.2 kcal/mol
61 | GGCTGCACGTGAGGGT | 0.28 kcal/mol
62 | TAATGCACGTGAAGTT | 0.15 kcal/mol
63 | TTTACCACGTGGGAAT | 0.01 kcal/mol
64 | ATCGACACGTGAGGGT | 0.12 kcal/mol
65 | GTAGTCACGTGAGGTA | 0.27 kcal/mol
66 | GTGTACACGTGTATTA | 0.06 kcal/mol
67 | AGGGGCACGTGGCATT | -0.13 kcal/mol
68 | GTGGCCACGTGGTGAA | -0.04 kcal/mol
69 | TGTATCACGTGGGGCA | 0.03 kcal/mol

Row | Sequence | relative binding free energy
70 | CTTTGCACGTGTTTTC | 0 kcal/mol
71 | AATGGCACGTGACAGG | -0.03 kcal/mol
72 | ATGATCACGTGAGTTA | 0.42 kcal/mol
73 | GGGTTCACGTGATATA | 0.45 kcal/mol
74 | CGGGGCACGTGTATCG | -0.13 kcal/mol
75 | TGAATCACGTGCTGTG | 0.05 kcal/mol
76 | ATGATCACGTGGTATA | 0.04 kcal/mol
77 | GGTTGCACGTGGGGGA | -0.02 kcal/mol
78 | TGGCGCACGTGGCGTT | -0.11 kcal/mol
79 | TGCGTCACGTGGTGCT | -0.12 kcal/mol
80 | GGCGTCACGTGTAGAG | 0.22 kcal/mol
81 | TTAAGCACGTGTCTTT | 0.04 kcal/mol
82 | GCCTGCACGTGGTGGT | -0.05 kcal/mol
83 | GGCGACACGTGTCGGG | 0.25 kcal/mol
84 | TTTTACACGTGACAGG | 0.24 kcal/mol
85 | GGGGCCACGTGGTTGC | -0.13 kcal/mol
86 | GGTGTCACGTGAAATG | 0.32 kcal/mol
87 | TGTGCCACGTGTTTGG | -0.18 kcal/mol
88 | CGGTGCACGTGTATGG | -0.02 kcal/mol
89 | GTCGTCACGTGGTTTC | 0.23 kcal/mol
90 | ATATGCACGTGAAATT | 0.28 kcal/mol
91 | GGGAGCACGTGGAGCT | -0.08 kcal/mol
92 | ATGGCCACGTGCGGGT | -0.18 kcal/mol

Row | Sequence | relative binding free energy
93 | ATGTGCACGTGTCAGA | 0.01 kcal/mol
94 | ATTTGCACGTGTCCGG | 0.03 kcal/mol
95 | AGGGACACGTGGGCTA | -0.17 kcal/mol
96 | TTAGACACGTGTATTA | -0.01 kcal/mol
97 | AACTACACGTGGGTGT | -0.02 kcal/mol
98 | TGTGGCACGTGCTTTG | -0.2 kcal/mol
99 | GTATACACGTGCGAGG | 0.04 kcal/mol
100 | TTTGGCACGTGAGTCA | 0.1 kcal/mol
101 | CGTTGCACGTGGGGCG | -0.19 kcal/mol
102 | TCTTTCACGTGGATGT | 0.07 kcal/mol
103 | TAGGGCACGTGGAGTT | -0.19 kcal/mol
104 | GTGACCACGTGGGTTT | -0.14 kcal/mol
105 | TAAATCACGTGGCGTT | 0.11 kcal/mol
106 | GTGAGCACGTGATGGG | 0.06 kcal/mol
107 | TGTTACACGTGGTACT | 0.11 kcal/mol
108 | TTTAGCACGTGTGTGA | 0.02 kcal/mol
109 | GTATGCACGTGGGGCC | -0.06 kcal/mol
110 | CGATGCACGTGTGAGG | 0.07 kcal/mol
111 | TCTGTCACGTGGGACT | 0 kcal/mol
112 | GTGCTCACGTGGTCGT | 0.16 kcal/mol
113 | GGGCCCACGTGGATGG | -0.04 kcal/mol
114 | TCTTTCACGTGGGGAG | 0.12 kcal/mol
115 | AGTTACACGTGGGGTT | 0.04 kcal/mol
